{"source": "PubChem BioAssay AID1508624", "about": "(National Center for Advancing Translational Sciences (NCATS), 2021)", "note": "The campaign covered roughly 48,000 compounds. About 120 (0.25%) were called active. Not shown: some 4% with an inconclusive outcome. The call rests on the fitted dose curve; in most records, active means well fitted activation curve with a large enough effect; inconclusive means small, poorly fitted or top-dose-only effect, or another doubt; inactive means no such curve, though single readings can be large or run the other way. This is one part of the list.", "data": [{"experiment": "Primary qHTS for Identification of Small Molecule Activators of Huntingtin-Antisense Promoter Activity; further: nearly all actives have a fitted effect of over 55% in size", "details": "HEK293 HTT-AS promoter firefly luciferase reporter, 24 h; series mostly up to 57.5 µM; activity change, positive = activation: at the top concentration", "how_it_was_run": "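HEK293 luciferase promoter-reporter cells (2,500/well) plated 24 h, then compounds added at up to 57.5 uM final for 24 h at 37 °C. Firefly luminescence by Dual-Glo, normalized to vehicle (0%) and zero RLU (-100%).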", "values": [{"smiles": "COc1ccc(OCC2c3cc(OC)c(OC)cc3CCN2C(=O)c2ccc(F)cc2)cc1", "note": "(configuration not stated)", "activity change, positive = activation": "inactive: -18.5%"}, {"smiles": "COc1ccc2cc3cc(C(=O)N4CCN(c5ccc(C(C)=O)cc5)CC4)sc3nc2c1Cl", "activity change, positive = activation": "inactive: -18.4%"}, {"smiles": "Cc1ccc(-c2cn3c(n2)sc2cc(C(=O)NCCCN4CCCCC4)ccc23)cc1", "activity change, positive = activation": "inactive: -51.3%"}, {"smiles": "O=S(=O)(NCc1nc2cccnc2n1Cc1ccc(F)cc1)c1ccc2c(c1)CCCC2", "activity change, positive = activation": "inactive: -26.2%"}, {"smiles": "CCCC(=O)O[C@]1(C(=O)CC)CC[C@H]2[C@@H]3CCC4=CC(=O)CC[C@]4(C)[C@H]3[C@@H](O)C[C@@]21C", "activity change, positive = activation": "inactive: -12.1%"}, {"smiles": "O=S(=O)(NCCc1csc2nc(-c3ccc(F)cc3)nn12)c1ccc(Br)cc1", "activity change, positive = activation": "inactive: -29.7%"}, {"smiles": "Cc1cc(NC(=O)Cn2c(=O)nc(-c3ccccc3F)c3cc(Cl)ccc32)ccc1Br", "activity change, positive = activation": "inactive: -21.9%"}, {"smiles": "Cc1ccc(C)c(NC(=O)Cn2cc(C(=O)C3CCCCC3)c3ccccc32)c1", "activity change, positive = activation": "inactive: -27.5%"}, {"smiles": "O=C(c1ccc2c(c1)N(Cc1cccc(Cl)c1)C(=O)c1ccccc1S2(=O)=O)N1CCCCC1", "activity change, positive = activation": "inactive: -30.3%"}, {"smiles": "Cc1ccc2[nH]c3c(=O)n(CC(=O)N(C)c4cc(Cl)ccc4C)ncc3c2c1", "activity change, positive = activation": "inactive: -33.4%"}, {"smiles": "COc1cccc(NC(=O)c2oc3ccccc3c2NC(=O)c2ccc(C(F)(F)F)cc2)c1", "activity change, positive = activation": "inactive: 21.2%"}, {"smiles": "O=C(CN1CCCN(Cc2ccc(Cl)cc2)S1(=O)=O)Nc1ccccc1F", "activity change, positive = activation": "inactive: -10.9%"}, {"smiles": "COc1cccc2c1Oc1ncccc1N(C(=O)CCC(=O)NCc1ccc(N(C)C)cc1)C2", "activity change, positive = activation": "inactive: -5.08%"}, {"smiles": "COc1ccc(-n2c(=O)c3c4c(sc3n(Cc3ccccc3)c2=O)CN(C(C)=O)CC4)cc1OC", "activity change, positive = activation": "inactive: -26.2%"}, {"smiles": "CCOC(=O)c1c(C)[nH]c(C)c1S(=O)(=O)N1CCC(C(=O)N2CCN(c3ccc(Cl)cc3)CC2)CC1", "activity change, positive = activation": "inactive: -12.5%"}, {"smiles": "CC1=C(c2ccc(C)c(C)c2)S(=O)(=O)N=C1N1CCC(C(=O)NCCc2ccc(Cl)cc2)CC1", "activity change, positive = activation": "inactive: -30.6%"}, {"smiles": "CCOc1ccc(NC(=O)N2CC=C(c3c[nH]c4ccccc34)CC2)cc1", "activity change, positive = activation": "inactive: -20.4%"}, {"smiles": "O=C1NC(=O)C(=Cc2cccc(C(F)(F)F)c2)S1", "activity change, positive = activation": "inactive: 2.54%"}, {"smiles": "COC(=O)c1ccc(Cl)cc1NC(=O)N1CCCn2nc(C)cc21", "activity change, positive = activation": "inactive: -3.65%"}, {"smiles": "COc1cc(OC)c(NC(=O)CCCn2nc(C)c3sc4ccccc4c3c2=O)cc1Cl", "activity change, positive = activation": "inactive: -14.9%"}, {"smiles": "COc1nc(-c2ccc(C)cc2)ccc1-c1noc(-c2ccccc2Br)n1", "activity change, positive = activation": "inactive: -6.81%"}, {"smiles": "CCCCOC(=O)CSc1nnc(-c2ccccc2)o1", "activity change, positive = activation": "inactive: 13.3%"}, {"smiles": "Cc1ccc(C)c(N2CCN(C(=O)CN3CCSc4ccc(S(=O)(=O)N(C)C)cc43)CC2)c1", "activity change, positive = activation": "inactive: -19.7%"}, {"smiles": "O=c1c2cccnc2n(Cc2ccccc2F)c(=O)n1Cc1ccccc1Cl", "activity change, positive = activation": "inactive: -7.26%"}, {"smiles": "CC(=O)Nc1nonc1-c1nnc(SCC(=O)Nc2cc(C)cc(C)c2)n1C", "activity change, positive = activation": "inactive: -7.81%"}, {"smiles": "C[C@]12CC[C@@H]3c4ccc(O)cc4CC[C@H]3[C@@H]1CCC2=O", "activity change, positive = activation": "inactive: -9.17%"}, {"smiles": "Cc1oc2ncn(CC(C)C)c(=O)c2c1C(=O)N1CCN(c2ccc(F)cc2)CC1", "activity change, positive = activation": "inactive: -6.1%"}, {"smiles": "COc1ccccc1CNc1ccc(-c2nc(C)no2)cc1[N+](=O)[O-]", "activity change, positive = activation": "inactive: -4.76%"}, {"smiles": "COc1cccc(NC(=O)/C(C#N)=C\\c2cn(Cc3ccc(C)cc3)c3ccccc23)c1", "activity change, positive = activation": "inactive: -24.6%"}, {"smiles": "O=C(c1ccc(C(F)(F)F)cc1)N1CCC(c2nc(-c3ccc(S(=O)(=O)N4CCCC4)cc3)no2)CC1", "activity change, positive = activation": "inactive: -29.4%"}, {"smiles": "COc1ccc(-c2oc3ncn4nc(-c5ccccc5Br)nc4c3c2-c2ccc(OC)cc2)cc1", "activity change, positive = activation": "inactive: -3.5% [at 11.5 µM, percent change from vehicle, -100% = no light]"}, {"smiles": "Cc1cccc(C)c1NC(=O)c1csc2c1CCCC2", "activity change, positive = activation": "inactive: -21.7%"}, {"smiles": "Cc1ccc(NC(=O)Nc2nnc(SCC(=O)Nc3ccc(F)cc3F)s2)cc1", "activity change, positive = activation": "inactive: -10.4%"}, {"smiles": "CCc1ccc(NC(=O)c2cc(S(=O)(=O)N3CCCCCC3)ccc2F)cc1", "activity change, positive = activation": "inactive: -26.2%"}, {"smiles": "CCCCN1CC(c2nc3ccccc3n2CCCCOc2ccc(C)cc2C)CC1=O", "note": "(configuration not stated)", "activity change, positive = activation": "inactive: -49.2%"}, {"smiles": "O=C(NCCCc1nc2ccccc2n1Cc1cccc(Cl)c1)c1ccco1", "activity change, positive = activation": "inactive: -16.1%"}, {"smiles": "O=C(c1cc(=O)c2cc(Cl)ccc2o1)N(Cc1ccccc1)C1CCS(=O)(=O)C1", "note": "(configuration not stated)", "activity change, positive = activation": "inactive: -5.33%"}, {"smiles": "CC(=O)OCc1cnc(C)c2oc(=O)c(C(=O)Nc3cccc(F)c3)cc12", "activity change, positive = activation": "inactive: -5.65%"}, {"smiles": "Cc1nc(N2CCCC2)c2c(C(=O)Nc3cccc(Cl)c3C)c(C)oc2n1", "activity change, positive = activation": "inactive: -24.4%"}, {"smiles": "Cc1ccc(-n2ncc3c(NCCCc4ccccc4)ncnc32)cc1", "activity change, positive = activation": "inactive: 25.7%"}, {"smiles": "COc1ccc(NC(=O)CSc2nc3nc(C)c(Cc4ccc(C)cc4)c(C)n3n2)cc1OC", "activity change, positive = activation": "inactive: -5.6%"}, {"smiles": "Nc1ncnc2c1c(-c1cccc(OCc3ccccc3)c1)cn2C1CC(CN2CCC2)C1", "note": "(configuration not stated)", "activity change, positive = activation": "inactive: -0.823%"}, {"smiles": "CCCNC(=O)C1CCC(Cn2c(=O)c3sccc3n(Cc3ccccc3C)c2=O)CC1", "note": "(configuration not stated)", "activity change, positive = activation": "inactive: -2.38%"}, {"smiles": "COc1ccc(Cl)cc1-n1nnc(-c2nc(-c3ccc4c(c3)OCO4)no2)c1C", "activity change, positive = activation": "inactive: -2.62%"}, {"smiles": "COc1cc2[nH]c(=O)n(Cc3ccc(C(=O)NCc4ccccc4)cc3)c(=O)c2cc1OC", "activity change, positive = activation": "inactive: -26%"}, {"smiles": "COc1ccc(Nc2nc(-c3cccc(Cl)c3)c3c(n2)-c2ccccc2OC3)cc1", "activity change, positive = activation": "inactive: -17.5%"}, {"smiles": "CCOc1ccccc1CNC(=O)Cc1ccc(NC(=O)N2CCCCc3ccccc32)cc1", "activity change, positive = activation": "inactive: -15.6%"}]}]}
